Assay in all cases: co-IP
Assay [1] has as its target HA-DDX39B (human) (UniProt Q13838).
Assay [2] concerns the target HA-DDX39A (human) (UniProt O00148).
Assay [3] concerns the target HA-DDX39B-ck (chicken) (UniProt Q5ZHZ0).
The target of assay [4] is FLAG-DDX39A (human) (UniProt O00148).
Assay [5] has as its target FLAG-DDX39B (human) (UniProt Q13838).
The target of assay [6] is FLAG-DDX39B (95A) (human) (UniProt Q13838).

By UniProt entry, the sequences of proteins in these tests, tags left out. Where a name states a change or a piece, a line headed by the entry shows the natural chain unless it says otherwise. Chains listed by the source or under a name are the forms on record and can include a tag or linker.
UniProt Q13838: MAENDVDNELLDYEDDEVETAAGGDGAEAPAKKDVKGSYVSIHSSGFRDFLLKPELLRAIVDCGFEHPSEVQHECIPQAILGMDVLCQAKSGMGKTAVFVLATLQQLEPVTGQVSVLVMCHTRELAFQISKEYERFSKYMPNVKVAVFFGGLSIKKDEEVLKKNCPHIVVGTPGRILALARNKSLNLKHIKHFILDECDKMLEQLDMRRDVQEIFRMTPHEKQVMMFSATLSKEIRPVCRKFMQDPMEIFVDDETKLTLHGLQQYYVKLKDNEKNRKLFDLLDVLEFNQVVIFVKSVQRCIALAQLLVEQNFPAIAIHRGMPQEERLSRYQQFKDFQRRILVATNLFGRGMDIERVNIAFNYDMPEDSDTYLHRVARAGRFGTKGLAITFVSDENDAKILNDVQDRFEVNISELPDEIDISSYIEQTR
FLAG-DDX39B (95A) (Q13838, form named): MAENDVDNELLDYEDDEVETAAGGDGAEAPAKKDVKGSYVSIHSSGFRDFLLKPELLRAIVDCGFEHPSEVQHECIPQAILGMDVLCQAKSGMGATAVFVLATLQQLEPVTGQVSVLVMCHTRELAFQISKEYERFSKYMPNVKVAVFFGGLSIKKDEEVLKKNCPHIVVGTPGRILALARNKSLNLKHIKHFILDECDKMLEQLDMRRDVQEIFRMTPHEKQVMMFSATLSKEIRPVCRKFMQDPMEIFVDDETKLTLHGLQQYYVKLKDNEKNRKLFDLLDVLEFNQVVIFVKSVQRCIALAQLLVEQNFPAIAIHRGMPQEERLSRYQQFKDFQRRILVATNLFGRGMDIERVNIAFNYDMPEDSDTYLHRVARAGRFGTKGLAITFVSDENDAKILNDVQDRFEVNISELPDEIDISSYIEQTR
UniProt O00148: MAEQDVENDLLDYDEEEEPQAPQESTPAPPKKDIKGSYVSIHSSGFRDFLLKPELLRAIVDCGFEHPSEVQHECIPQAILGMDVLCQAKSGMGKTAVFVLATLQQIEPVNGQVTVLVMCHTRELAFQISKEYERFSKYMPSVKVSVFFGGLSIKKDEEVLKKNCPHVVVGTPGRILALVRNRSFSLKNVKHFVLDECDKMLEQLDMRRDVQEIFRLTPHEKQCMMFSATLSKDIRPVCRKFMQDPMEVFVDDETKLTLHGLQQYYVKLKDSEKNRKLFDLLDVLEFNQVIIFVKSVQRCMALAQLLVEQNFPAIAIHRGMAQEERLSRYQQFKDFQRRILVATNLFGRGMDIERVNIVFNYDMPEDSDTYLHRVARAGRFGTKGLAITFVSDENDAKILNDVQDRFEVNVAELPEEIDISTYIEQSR
UniProt Q5ZHZ0: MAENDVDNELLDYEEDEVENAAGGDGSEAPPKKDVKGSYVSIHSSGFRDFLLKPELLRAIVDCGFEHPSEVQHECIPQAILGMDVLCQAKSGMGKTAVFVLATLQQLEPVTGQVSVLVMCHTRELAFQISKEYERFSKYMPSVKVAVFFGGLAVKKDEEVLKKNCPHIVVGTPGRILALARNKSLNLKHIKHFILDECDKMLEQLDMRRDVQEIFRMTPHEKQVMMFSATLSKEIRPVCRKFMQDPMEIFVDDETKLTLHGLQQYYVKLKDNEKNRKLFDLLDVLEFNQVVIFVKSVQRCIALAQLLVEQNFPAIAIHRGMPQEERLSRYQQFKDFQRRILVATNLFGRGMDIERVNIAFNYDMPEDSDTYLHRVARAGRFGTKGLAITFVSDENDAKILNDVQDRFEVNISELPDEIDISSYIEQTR
UniProt P05777: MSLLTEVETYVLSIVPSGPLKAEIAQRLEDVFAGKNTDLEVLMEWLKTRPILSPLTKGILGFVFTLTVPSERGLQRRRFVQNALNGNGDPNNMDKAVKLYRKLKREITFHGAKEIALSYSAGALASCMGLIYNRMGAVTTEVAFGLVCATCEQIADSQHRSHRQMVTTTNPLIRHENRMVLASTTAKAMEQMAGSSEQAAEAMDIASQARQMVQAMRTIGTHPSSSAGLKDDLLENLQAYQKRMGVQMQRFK
UniProt P15682: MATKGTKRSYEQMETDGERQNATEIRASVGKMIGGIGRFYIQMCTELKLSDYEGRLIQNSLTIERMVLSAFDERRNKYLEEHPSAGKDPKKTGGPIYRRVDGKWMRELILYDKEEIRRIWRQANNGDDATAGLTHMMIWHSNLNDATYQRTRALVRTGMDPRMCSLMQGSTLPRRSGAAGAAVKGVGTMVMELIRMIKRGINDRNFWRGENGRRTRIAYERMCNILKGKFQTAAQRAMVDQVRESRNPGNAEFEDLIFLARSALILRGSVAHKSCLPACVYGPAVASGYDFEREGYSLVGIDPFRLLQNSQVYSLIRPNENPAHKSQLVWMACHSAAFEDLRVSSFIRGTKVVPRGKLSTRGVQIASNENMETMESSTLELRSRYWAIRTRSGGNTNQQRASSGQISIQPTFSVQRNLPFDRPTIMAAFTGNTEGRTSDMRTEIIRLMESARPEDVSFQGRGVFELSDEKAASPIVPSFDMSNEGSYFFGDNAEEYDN

Results are given in words; binding and its absence hold for the method and conditions named. Binding seen in cells or lysates may run through a third protein. Some entries that bind do so weakly or less than the wild type. For part of these data: Sequences can lack the tags named with a protein.

Turning to “FLAG-M1 of influenza virus A/WSN/1933 (H1N1) (from UniProt P05777 1-252)”, the binding result in assay [1] and in assay [2] was “no binding” each time. Turning to “FLAG-NP of influenza virus A/WSN/1933 (H1N1) (from UniProt P15682 1-498)”, the binding entry in assay [3] is “binds”.

B1: MYC-THOC1 (protein, UniProt Q96FV9 1-657)
chain: MSPTPPLFSLPEARTRFTKSTREALNNKNIKPLLSTFSQVPGSENEKKCTLDQAFRGILEEEIINHSSCENVLAIISLAIGGVTEGICTASTPFVLLGDVLDCLPLDQCDTIFTFVEKNVATWKSNTFYSAGKNYLLRMCNDLLRRLSKSQNTVFCGRIQLFLARLFPLSEKSGLNLQSQFNLENVTVFNTNEQESTLGQKHTEDREEGMDVEEGEMGDEEAPTTCSIPIDYNLYRKFWSLQDYFRNPVQCYEKISWKTFLKYSEEVLAVFKSYKLDDTQASRKKMEELKTGGEHVYFAKFLTSEKLMDLQLSDSNFRRHILLQYLILFQYLKGQVKFKSSNYVLTDEQSLWIEDTTKSVYQLLSENPPDGERFSKMVEHILNTEENWNSWKNEGCPSFVKERTSDTKPTRIIRKRTAPEDFLGKGPTKKILMGNEELTRLWNLCPDNMEACKSETREHMPTLEEFFEEAIEQADPENMVENEYKAVNNSNYGWRALRLLARRSPHFFQPTNQQFKSLPEYLENMVIKLAKELPPPSEEIKTGEDEDEEDNDALLKENESPDVRRDKPVTGEQIEVFANKLGEQWKILAPYLEMKDSEIRQIECDSEDMKMRAKQLLVAWQDQEGVHATPENLINALNKSGLSDLAESLTNDNETNS
As to B1, the binding entry in assay [4] is “binds”.

B2: MYC-CIP29 (protein, UniProt P82979 1-210)
chain: MATETVELHKLKLAELKQECLARGLETKGIKQDLIHRLQAYLEEHAEEEANEEDVLGDETEEEETKPIELPVKEEEPPEKTVDVAAEKKVVKITSEIPQTERMQKRAERFNVPVSLESKKAARAARFGISSVPTKGLSSDNKPMVNLDKLKERAQRFGLNVSSISRKSEDDEKLKKRKERFGIVTSSAGTGTTEDTEAKKRKRAERFGIA
Consider B2, for which the binding result in assay [5] and in assay [4] was “binds” throughout.

B3: CIP29 (in infected HEK293T cells, Fig 6L) (protein, UniProt P82979 1-210)
chain: B2 chain
For B3, the values for the binding entry in assay [5] and in assay [6] were “binds” and “no binding”, respectively.

B4: HA-SRSF7 (protein, UniProt Q16629 1-238)
chain: MSRYGRYGGETKVYVGNLGTGAGKGELERAFSYYGPLRTVWIARNPPGFAFVEFEDPRDAEDAVRGLDGKVICGSRVRVELSTGMPRRSRFDRPPARRPFDPNDRCYECGEKGHYAYDCHRYSRRRRSRSRSRSHSRSRGRRYSRSRSRSRGRRSRSASPRRSRSISLRRSRSASLRRSRSGSIKGSRYFQSPSRSRSRSRSISRPRSSRSKSRSPSPKRSRSPSGSPRRSASPERMD
B4: the binding result in assay [5] is given as “no binding”.

Source of the values: paper PMC9491529.
